PubChem BioAssay AID463173 (ICCB-Longwood Screening Facility, Harvard Medical School, 2010)
Among all 52,000 compounds or so, about 4,300 (8.3%) were called active. No stated cut-off is given here; in the data, active means survival mostly below about 52% (no sharp cut-off); inactive means mostly above about 56%. This is one part of the list.

Each molecule was assayed on DeltatarO mutant (assay: growth inhibition of S. aureus wild type versus tarO mutant, primary screen, teichoic acid synthesis inhibitors, RN4220, OD600 (AID 463173)). Details: OD600, 18 h, stronger effect = lower value, screened at 18.75 µg/mL (by protocol).

| SMILES | survival |
| --- | --- |
| Cc1ccc(C)c(N2CCN(C(=O)c3cc(S(=O)(=O)N4CCCC4)cn3C)CC2)c1 | inactive: 64% |
| CCOC(=O)C1CCC(CN(Cc2c(Cl)cccc2Cl)S(=O)(=O)c2ccc(F)cc2)CC1 (stereo not given) | inactive: 58% |
| COc1cc(C(=O)N2CCc3c([nH]c4ccccc34)C2c2ccccc2)cc(OC)c1OC (stereo not given) | inactive: 68% |
| Cc1cccc(C(=O)Nc2nc(-c3ccc(Br)cc3)ns2)c1 | inactive: 74% |
| CC(=O)N1CCC2(CC1)OC(=O)C(C)=C2C(=O)Nc1ccccc1C(F)(F)F | inactive: 81% |
| CCOC(=O)C1CCN(C(=O)Cn2ncc3c([nH]c4ccc(C)cc43)c2=O)CC1 | inactive: 72% |
| Cc1cccc(N(CC(=O)NCCSc2ccc(Cl)cc2)S(=O)(=O)c2ccccc2)c1C | inactive: 49% |
| COc1ccccc1OCCn1c(-c2ccc(Br)cc2)nc2ccccc2c1=O | inactive: 71% |
| CC1CCCCN1Cc1c(C#N)c2ccccc2n1C (stereo not given) | inactive: 89% |
| Cc1ccc(C(=O)Nc2ccc(Cl)c(-c3nc4ncccc4o3)c2)c(C)c1 | inactive: 50% |
| Cc1ccccc1OCc1ccc(-c2nc(C#N)c(NCCCN(C)C)o2)o1 | inactive: 59% |
| COc1cccc(-c2nc(-c3ccc(-c4ccccc4)nc3OC)no2)c1 | active: 10% |
| CCOC(=O)C1CCN(C(c2ccccc2OC)c2c(O)cc(C)n(CCOC)c2=O)CC1 (stereo not given) | inactive: 89% |
| O=C(Nc1ccc(F)cc1)[C@H](Cc1ccccc1)N1Cc2ccccc2C1=O | inactive: 89% |
| Cn1nnnc1SCCCNCc1cccc(OCc2ccc(Cl)cc2)c1 | active: -3% |
| CC(C)CCOc1ccc(C(=O)Nc2sc3c(c2C#N)CCCCC3)cc1 | inactive: 127% |
| Cc1ccc(CCNC(=O)CN(c2ccc(C)cc2)S(=O)(=O)c2c(C)noc2C)cc1 | inactive: 71% |
| Cc1c(Cl)ccc2sc(N3CCN(C(=O)c4ccco4)CC3)nc12 | inactive: 69% |
| COc1ccccc1CNc1ccc(-c2nc(C(C)C)no2)cc1[N+](=O)[O-] | inactive: 55% |
| CCOc1ccc(CNC(=O)c2cc3oc4ccccc4c3n2C)cc1 | inactive: 95% |
| Cc1ccc(C)c(NC(=O)Cn2cc(C(=O)c3ccncc3)c(=O)c3cc(F)ccc32)c1 | inactive: 89% |
| COc1ccc(NC(=O)Cn2cnc3sc(C)c(S(=O)(=O)N4CCN(C)CC4)c3c2=O)cc1OC | inactive: 167% |
| CN(C)c1ccc(CNc2nc(-c3ccco3)nn2S(=O)(=O)c2ccc3ccccc3c2)cc1 | inactive: 69% |

| SMILES | survival |
| --- | --- |
| O=C(CSc1nc2c(c(=O)[nH]1)CCC2)Nc1ccccc1F | inactive: 73% |
| Cc1cc(C)c2c(CC(=O)N(Cc3ccc(N(C)C)cc3)Cc3ccco3)coc2c1 | active: 42% |
| COc1ccccc1OCCn1cc(C(=O)c2cccs2)c2ccccc21 | inactive: 142% |
| O=C(c1cc2c(=O)oc3ccccc3c2s1)N1CCN(c2cccc(Cl)c2)CC1 | inactive: 170% |
| COc1ccc(Cl)cc1NC(=O)Cn1ccn(Cc2ccc(C)cc2)c(=O)c1=O | inactive: 47% |
| CCOC(=O)N1CCN(C(=O)CN(c2cccc(Cl)c2C)S(=O)(=O)c2ccc(C)cc2)CC1 | inactive: 119% |
| O=C(Nc1ccccc1)c1cccc2c(=O)c3c([nH]c12)CCCC3 | inactive: 70% |
| Cc1cccc(-n2c(SCC(N)=O)nc3c(oc4ccccc43)c2=O)c1 | inactive: 81% |
| CCOc1ccccc1NC(=O)C1CCN(S(=O)(=O)c2c(C)noc2/C=C/c2ccc(C)cc2)CC1 | inactive: 90% |
| COC(=O)c1ccc(Nc2ncnc3c2nc2n3CCCC2)cc1 | inactive: 119% |
| CCOc1ccc(C(=O)NCCn2cc(SCC(=O)NCCc3ccc(OC)c(OC)c3)c3ccccc32)cc1 | inactive: 78% |
| Cc1ccc(NC(=O)Cn2c(-c3ccc4c(c3)OCO4)cn(-c3ccccc3)c2=O)cc1C | inactive: 74% |
| CC1CCCCN1C(=O)c1ccc(S(=O)(=O)NCc2cccnc2)cc1 (stereo not given) | inactive: 95% |
| CCC1CN(C(=O)N2CCC(C(=O)NCc3ccc(OC)cc3OC)CC2)c2cc(C)ccc2O1 (stereo not given) | inactive: 79% |
| Cc1cccc(NC(=O)Cn2cc(CO)c3ccccc32)c1 | inactive: 75% |
| COCCn1c(SCC(=O)c2cc(C)ccc2C)nc2cc(C(=O)NC3CCCC3)ccc2c1=O | inactive: 81% |
| Cc1cc(C)cc(NC(=O)c2cc(S(=O)(=O)N3CCCCCC3)cn2C)c1 | inactive: 85% |
| O=C(Nc1ccccc1NC(=O)c1cccs1)c1cccs1 | inactive: 74% |
| CCN(CC)CCN(C(=O)c1ccco1)c1nc2ccc(Cl)cc2s1 | inactive: 66% |
| Cn1c(SCc2ccc(F)cc2)nc2ccc(C(=O)NCc3ccc(F)cc3)cc21 | inactive: 63% |
| Cc1nn(CC(=O)NC2CC2)c(=O)c2cc3ccccc3n12 | inactive: 91% |
| Cc1ccc(-n2nc3c(N4CCC(C(=O)NC(C)C)CC4)nnc(C)c3c2C)cc1 | inactive: 100% |
